Assay results published in PubChem BioAssay AID463173 (ICCB-Longwood Screening Facility, Harvard Medical School, 2010).
Among all 52,000 compounds or so, about 1,700 (3.3%) were called active. Rule as the data show it: active = survival mostly below about 52% (no sharp cut-off); inactive = mostly above about 56%. The list shows a part of the results.

system: Wild type; assay: growth inhibition of S. aureus wild type versus tarO mutant, primary screen, teichoic acid synthesis inhibitors, RN4220, OD600 (AID 463173); conditions: S. aureus RN4220 wild type/DeltatarO growth, OD600, 18 h, active compounds read low, screened at 18.75 µg/mL (by protocol)

SMILES	survival
COCCCNC(=O)CSC1=Nc2ccccc2C2=NC(CCC(=O)NCc3ccccc3OC)C(=O)N12 (centres undefined)	inactive: 73%
COc1ccc(N2CCN(c3oc(/C=C/c4ccc(F)cc4)nc3C#N)CC2)cc1	inactive: 84%
CCc1ccc(CN(Cc2ccco2)C(=O)c2ccc(OC)cc2)cc1	inactive: 73%
O=S(=O)(Nc1cccc(-c2ccc(N3CCCC3)nn2)c1)c1ccccc1C(F)(F)F	inactive: 55%
O=C(C1CCCCC1)N1CCc2ccccc21	inactive: 101%
COCC(C)NCc1cccc(Oc2ccccc2)c1 (centres undefined)	inactive: 104%
CCc1ccc(CNC(=O)CCC(=O)N2Cc3cccc(OC)c3Oc3ncccc32)cc1	inactive: 63%
Cc1nnc(SCC(=O)n2c3ccccc3c3ccccc32)s1	inactive: 105%
O=C(Nc1cccc(C(=O)OCc2cc(=O)n3nc(C4CC4)sc3n2)c1)c1ccccc1	active: 1%
Cc1cc(C)cc(OC(C)C(=O)Nc2nonc2-c2ccc(Br)cc2)c1 (centres undefined)	active: 17%
O=C(NCc1ccco1)C1CCN(C(=O)N2CCOc3ccccc32)CC1	inactive: 85%
Nc1c(-c2nc(-c3cccs3)no2)nnn1-c1ccccc1Cl	inactive: 94%
Cc1ccc(Cl)cc1N(C)C(=O)Cn1nc(Cc2cccnc2)c2ccccc2c1=O	inactive: 85%
CCOc1cccc(CNC(=O)c2ccc(N3CCCC3)c(NC(=O)NCc3ccc(F)cc3)c2)c1	inactive: 71%
CN(c1ccc(O)cc1)c1nc(-c2cccs2)cs1	inactive: 32%
Cc1ccccc1NC(=O)CSc1nnc(C)c(=O)[nH]1	inactive: 89%
Cc1ccc(-n2nc(C)c(C(=O)NCCCN3CCN(c4ccc(F)cc4)CC3)c2-n2cccc2)cc1	inactive: 101%
Cc1ccccc1CS(=O)(=O)CC1Nc2ccc(C(=O)NCc3ccc(Cl)cc3)cc2NC1=O (centres undefined)	inactive: 71%
CCN(CC)CCOC(=O)c1ccc(NC(=O)Cn2ncc3c([nH]c4ccc(C)cc43)c2=O)cc1	inactive: 68%
COCCn1c(CNC(=O)c2ccc(C)cc2)nc2cccnc21	inactive: 75%

SMILES	survival
COc1ccccc1-c1nc2c3c(-c4ccccc4)c(-c4ccccc4)oc3ncn2n1	inactive: 89%
CCOc1ccc(-c2nonc2NC(=O)c2oc3c(C)c(C)ccc3c2C)cc1OCC	inactive: 82%
Cc1ccc(C)c(Cn2c3ccccc3c3cnn(CC(=O)NCCCc4ccccc4)c(=O)c32)c1	inactive: 137%
COc1ccc2c(c1)c(=O)c(S(=O)(=O)c1ccc(Cl)cc1)cn2C	inactive: 86%
N#Cc1ccc(NC(=O)CNCCN2CCOCC2)cc1	inactive: 99%
Cc1ccccc1CNC(=O)C1CCN(c2nnc(-n3c(C)ccc3C)s2)CC1	inactive: 85%
COCCN=C1Sc2nc3c(C)cccc3cc2CN1Cc1ccco1	inactive: 108%
COc1ccc(O)c(-c2cn[nH]c2-c2cccs2)c1	inactive: 105%
CC(=O)Nc1c(C)nn(-c2ccccc2)c1N1CCC(C(=O)Nc2ccc(F)cc2Cl)CC1	inactive: 60%
Cc1cccc(NC(=O)N2CCC(CN3CCC(C)CC3)CC2)c1C	inactive: 105%
CCCc1[nH]nc2c1C1(CCN(C(C)=O)CC1)C(C#N)=C(N)O2	inactive: 103%
Cc1ccc2c(c1)C(c1ccccc1)N(C(=O)c1ccccc1F)CC(=O)N2 (centres undefined)	inactive: 86%
CCOC(=O)c1c(C)[nH]c(C)c1S(=O)(=O)N1CCCC(C(=O)Nc2ccccc2OCC)C1 (centres undefined)	inactive: 129%
CCc1cccc(CC)c1NC(=O)C(CC)n1nc(C)n2c(cc3cc(C)ccc32)c1=O (centres undefined)	inactive: 73%
CCOC(=O)CSc1nnc(COc2cccc(C)c2)o1	inactive: 98%
CCOC(=O)c1cccc(NC(=O)c2cc3cc4ccc(C)cc4nc3o2)c1	inactive: 95%
CCCn1c(SCc2nc(-c3cc(OC)ccc3OC)no2)nnc1-c1ccc(Cl)cc1	inactive: 77%
CCc1cccc2cc(CN)c(=O)[nH]c12	inactive: 108%
Cc1ccc(-n2ncc(C(=O)Nc3ccc4c(c3)OCCO4)c2C2CCN(C(=O)OC(C)(C)C)CC2)cc1	inactive: 115%
Cc1ccccc1-c1noc(-c2cc3ccccc3oc2=O)n1	inactive: 90%

SMILES	survival
COc1ccc(Br)cc1CNC(=O)CSc1cc(=O)n(C)c2ccccc12	inactive: 81%
CCN1CCN(c2csc3ccc(C)cc3c2=O)CC1	inactive: 64%
CC1CCN(S(=O)(=O)c2ccc3c(c2)oc(=O)n3CC(=O)NC(C)c2ccccc2)CC1 (centres undefined)	inactive: 144%
CCCc1ccc(OC(C)C(=O)Nc2sc3c(c2C(=O)OC)CCCCC3)cc1 (centres undefined)	active: -2%
Cc1ccc(-c2nc(CS(=O)(=O)CC(=O)N3CCN(c4cccc(C)c4C)CC3)c(C)o2)cc1	inactive: 129%
CCOC(=O)c1cnc2ccc(OC)cc2c1NCCc1ccc(OC)c(OC)c1	inactive: 78%
Cn1c(SCC(=O)N2CCCc3ccccc32)ncc(C(=O)Nc2ccc(F)cc2)c1=O	inactive: 70%
CSc1nc(Nc2cccc(C)c2)c(C#N)c(-c2ccccc2)n1	inactive: 104%
CNc1c(NC(=O)c2cc(OC)cc(OC)c2)c(=O)oc2ccccc12	inactive: 87%
Cc1ccc(C(=O)CCNc2ccc(F)c(Cl)c2)o1	inactive: 100%
Cc1cccc(CNC(=O)c2cccc(NC(=O)N3CCSc4ncccc43)c2)c1	inactive: 51%
CCCCNC(=O)c1nn(-c2ccc(C)cc2)c(=O)c2c1c1ccccc1n2C	inactive: 79%
CCC12CN3CC(C)(CN(C1)C3c1ccccc1C)C2=O (centres undefined)	inactive: 82%
Cc1ccccc1-c1nc2cc(NC(=O)c3cccc(OCCC(C)C)c3)ccc2o1	inactive: 61%
CCOc1ccc(-n2ccn3c(CC(C)CC(=O)O)nnc3c2=O)cc1 (centres undefined)	inactive: 139%
CC(=O)OC(C(=O)NCc1ccc2c(c1)OCO2)c1ccccc1Cl (centres undefined)	inactive: 101%
COc1ccc2c(c1)c1c(c(=O)n(-c3ccc(C)cc3)c(=O)n1CC(=O)N1CCCC1)n2C	inactive: 69%
COc1cc(NC(=O)c2ccc(-c3nc(COc4ccccc4)c(C)o3)cc2)cc(OC)c1	inactive: 77%
O=C(c1ccco1)c1cn(CC(=O)N2CCc3ccccc32)c2ccccc12	inactive: 85%
